# About 6,900 (2%) of roughly 340,000 compounds were called active. No stated cut-off is given here; in the data, active means inhibition above about 30%; inactive means below that, where a call was filed. The entries are a selection whose mix differs from that of the whole data set. Entries without a call were filed so in the source.
# Target: D(2) dopamine receptor (Homo sapiens) (UniProt P14416)
# Assay: HTS Assay for Allosteric Antagonists of the Human D2 Dopamine Receptor: Primary Screen for Antagonists; further: 0% is about no effect
# Conditions: HEK293 TREx D2 cells, calcium flux, dopamine EC80; at 10 µM; stronger effect = higher value
# Procedure, shortened: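 Overnight-induced (tetracycline, 30 C) HEK293 T-REx cells carrying force-coupled D2 receive a no-wash calcium dye, then compound, then EC80 dopamine at 180 s; signals are read kinetically throughout.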
# UniProt P14416, sequence (P14416 whole entry, looked up): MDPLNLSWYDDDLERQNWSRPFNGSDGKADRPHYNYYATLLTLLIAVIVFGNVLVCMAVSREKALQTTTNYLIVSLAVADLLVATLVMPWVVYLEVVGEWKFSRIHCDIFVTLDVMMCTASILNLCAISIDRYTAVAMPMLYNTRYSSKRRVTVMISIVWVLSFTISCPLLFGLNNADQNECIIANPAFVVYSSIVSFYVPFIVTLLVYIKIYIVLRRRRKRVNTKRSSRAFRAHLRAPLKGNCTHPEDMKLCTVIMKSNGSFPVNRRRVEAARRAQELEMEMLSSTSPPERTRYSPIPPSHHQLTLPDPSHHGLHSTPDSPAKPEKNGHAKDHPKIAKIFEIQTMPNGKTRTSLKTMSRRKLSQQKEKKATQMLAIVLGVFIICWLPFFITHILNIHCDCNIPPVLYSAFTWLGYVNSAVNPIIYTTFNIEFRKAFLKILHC
row,Compound,inhibition
1,COc1cccc(N2CCN(C(=O)C3CCCN(S(=O)(=O)c4ccc5c(c4)oc(=O)n5C)C3)CC2)c1 (stereo unspecified),10.6%
2,O=C1C(=O)N(C2CCN(S(=O)(=O)c3ccccc3)CC2)CCN1Cc1ccccc1,-13.9%
3,CC(C)(C)OC(=O)N1CCC(c2c(C(=O)Nc3ccc4c(c3)OCCO4)cnn2-c2ccc(F)cc2F)CC1,8.57%
4,COc1ccc(N2CC(NC(=O)COc3ccc(F)cc3)CC2=O)cc1OC (stereo unspecified),15.8%
5,CCOC(=O)c1c(C)[nH]c(C)c1S(=O)(=O)NCC1CCN(Cc2cccc(F)c2)CC1,active: 73.9%
6,CCOC(=O)C(=O)NCC(c1cccnc1)N1CCN(c2ccccc2)CC1 (stereo unspecified),0.397%
7,CCOC(=O)CC(NC(=O)c1cc2cc(Br)cc(OC)c2oc1=O)c1ccc(OC)cc1 (stereo unspecified),-2.21%
8,O=C(Nc1cccc(OCc2cc(=O)n3ccccc3n2)c1)c1ccccc1Br,7.62%
9,CCC1CN(C(=O)NCc2ccccc2)c2cc(Cl)ccc2O1 (stereo unspecified),-5.27%
10,COc1ccc(CNC(=O)Nc2cccc(C(F)(F)F)c2)cc1OC,active: 45.8%
11,Cc1ccc(-c2nc3c(c(SCC(=O)N(C)c4ccccc4)n2)Cc2c(CO)cnc(C)c2O3)cc1,-7.64%
12,CCN(CC)c1cc(C)c2cc(NC(=O)c3ccccc3Cl)ccc2n1,-19%
13,CCOC(=O)c1ccc(NC(=O)CSc2ccc(-c3ccccn3)nn2)cc1,11.5%
14,Cc1ccc(C(C)C)c(OCCCN2CCc3ccccc3C2)c1,active: 30.5%
15,COc1ccc(S(=O)(=O)NCCc2nnc3ccc(SCC(=O)Nc4cc(C)cc(C)c4)nn23)cc1,6.31%
16,CCOc1ccc(NC(=O)C2CCN(c3nc4ccccc4[nH]3)CC2)cc1,17.7%
17,COC(=O)c1c(SC)nc2ccccc2c1OCc1ccccc1Cl,-7.63%
18,CCSc1ccc(C(=O)Nc2ccc(-c3nc4ccc(C)cc4s3)cc2)cc1,-25.5%
19,COc1ccc2c(C)c(CCC(=O)NCc3ccc(C)cc3)c(=O)oc2c1,10.8%
20,CCC(CC)C(=O)OCc1cc(=O)n2nc(C3CCCCC3)sc2n1,2.73%
21,Cc1ccc(-c2c(C(=O)N3CCN(c4cccc(C)c4)C(C)C3)oc(=O)c3ccccc23)cc1 (stereo unspecified),6.65%
22,CCOc1ccc(CN2CCc3nc(N4CCN(c5ncccn5)CC4)ncc3C2)cc1OC,-6.34%
23,CCOC(=O)c1c(C)[nH]c(C)c1S(=O)(=O)N(C)CC(=O)N1CCN(c2ccc(Cl)cc2)CC1,3.97%
24,COC(=O)C1=C(C)N=C2SCCC(=O)N2C1c1ccc(OCc2ccccc2)c(OC)c1 (stereo unspecified),-0.278%

row,Compound,inhibition
1,COCCN1Cc2cccc(C(=O)Nc3ccc(C)cc3)c2C1=O,active: 40.7%
2,CCOc1ccc(N2C(=O)CS(=O)(=O)C23C(=O)N(Cc2cccc(Cl)c2)c2ccccc23)cc1 (stereo unspecified),-1.29%
3,CC(C)(C)OC(=O)N1CCC(c2c(C(=O)NCCc3ccsc3)cnn2-c2ccccc2Cl)CC1,-0.923%
4,CC1=C(C(=O)Nc2cc(Cl)ccc2C)C2(CCCCC2)OC1=O,0.544%
5,O=C(NCCc1csc(-c2ccc(F)cc2)n1)c1ccco1,9.89%
6,Cc1cc(C)n2nc(CNC(=O)c3ccccc3Cl)nc2n1,-7.55%
7,Cc1cc(C)cc(NC(=O)CCc2nnc3n(C)c(=O)c4sccc4n23)c1,-4.44%
8,OC(CSc1ccc(F)cc1)CN1CCN(c2ccccc2)CC1 (stereo unspecified),active: 75.8%
9,CCC(C(=O)Nc1ccc(C(C)=O)cc1)n1cnc2nc3c(cc2c1=O)CCCC3 (stereo unspecified),4.49%
10,Cn1c(CN2CCCCC2)nc2cc(NS(=O)(=O)c3ccc(Cl)cc3)ccc21,active: 72.6%
11,CCOc1ccccc1NS(=O)(=O)c1ccc2c(c1)CC(C)N2C(=O)C1CC1 (stereo unspecified),1.94%
12,COc1cc(C(CC(=O)NCc2ccccc2)N2Cc3ccccc3C2=O)cc(OC)c1OC (stereo unspecified),10.1%
13,OCCC1CN(Cc2cccc3nonc23)CCN1C1CCCCC1 (stereo unspecified),active: 37.7%
14,CCc1c(C)nc2nncn2c1Nc1ccc(Cl)cc1,11.4%
15,CCc1nc2ccccc2n2c(-c3ccccc3)c3c(=O)n(C)c(=O)n(C)c3c12,-1.43%
16,COc1ccc(-n2c(=O)c3c4c(sc3n(Cc3ccc(C)cc3C)c2=O)CCC4)c(OC)c1,-11.4%
17,COc1ccc(Cl)cc1NC(=O)CSc1nnc(C)n2c1cc1occc12,-10.7%
18,Brc1ccccc1OCCCCCN1CCOCC1,active: 36.4%
19,O=C(NCc1ccccc1)C(=O)NCC(c1ccco1)S(=O)(=O)c1ccccc1 (stereo unspecified),-12%
20,COc1ccc(N2CCN(C(CNC(=O)C(=O)NCc3ccc(F)cc3)c3cccnc3)CC2)cc1 (stereo unspecified),-22.7%
21,CCCN(CCC)c1nn2c(=O)c(C(=O)NCc3cccc(OC)c3)cnc2s1,26.7%
22,Cc1cc2nn(-c3ccc(F)cc3)nc2cc1NC(=O)c1cc(Cl)ccc1Cl,-0.39%
23,CCCCN1C(=O)C(O)(c2c(C)[nH]c3ccccc23)c2cc(Br)ccc21 (stereo unspecified),-1.39%
24,Cc1ccc(CCNC(=O)CN2C(=O)COc3ccc(S(=O)(=O)N4CCC(C)CC4)cc32)cc1,3.58%

row,Compound,inhibition
1,CCN1CCN(C(c2cccc(Cl)c2)c2c(O)cc(C)n(CCOC)c2=O)CC1 (stereo unspecified),4.41%
2,Cc1cc(OCC(=O)NCC2(N(C)C)CCCCC2)cc(C)c1Cl,-13.9%
3,COc1cccc(C2=NS(=O)(=O)N(C)C(C(=O)Nc3cccc(O)c3)=C2)c1,-3.85%
4,Cc1ccc(-c2nnc(SCC(=O)NCCC(C)C)nc2-c2ccc(C)cc2)cc1,2.42%
5,CCn1cc(C(=O)NCCCN(CC(C)C)CC(C)C)c(=O)c2cc(S(=O)(=O)N3CCc4ccccc4C3)ccc21,-2.69%
6,Cc1cc(NC(=O)C2CCCN(S(=O)(=O)c3ccc(Br)s3)C2)ccc1Br (stereo unspecified),-18.9%
7,COc1ccc(CC(=O)Nc2ccc(-c3nc4ccccc4s3)cc2Cl)cc1,18.1%
8,O=C1CC(c2ccccc2)Cc2[nH]c(=O)c(-c3nc(-c4ccc(F)cc4)cs3)cc21 (stereo unspecified),-13.9%
9,CC(C)Oc1ccc(CNC(=O)C2COc3ccccc3C2)cc1 (stereo unspecified),26%
10,Cc1ccccc1-c1nc(CS(=O)CC(=O)NCCc2ccc(Cl)cc2)c(C)o1 (stereo unspecified),7.82%
11,O=C(CN1C(=O)COc2ccc(S(=O)(=O)N3CCCC3)cc21)N1CCN(c2ccccc2F)CC1,-13.3%
12,O=C1CN(C(=O)C2CCCCC2)C(c2ccccc2)c2cc(F)ccc2N1 (stereo unspecified),-7.71%
13,CCOc1ccc(C2c3c(oc4ccc(C)cc4c3=O)C(=O)N2c2nc(C)c(C)s2)cc1OC (stereo unspecified),-2.2%
14,CCOC(=O)c1cnc2ccc(OCC)cc2c1N1CCN(c2cccc(Cl)c2)CC1,-10.3%
15,COc1ccc(-c2noc(-c3ccc(N4CCCCC4)c([N+](=O)[O-])c3)n2)cc1,15.3%
16,CCCCCCOc1ccc(-c2nc3ccc(Br)cc3c(=O)o2)cc1,2.05%
17,Cc1ccc(-c2cc(C(=O)Oc3ccccc3)c3cccc(C)c3n2)cc1,22.4%
18,COc1ccccc1OCCCn1c(=O)oc2ccccc21,active: 34.1%
19,Cc1nc(C(=O)NCC(=O)c2ccccc2)c(C(F)(F)F)o1,active: 31.8%
20,Cc1sc(-c2cc3ccccc3oc2=O)nc1-c1ccc(Cl)cc1,-22.3%
21,c1ccc(C2C3=C(CCCC3)Nc3ncnn32)cc1 (stereo unspecified),active: 31.5%
22,COC(=O)c1cc(S(=O)(=O)N2CCN(c3ccc(C)cc3C)CC2)cn1C,13.9%
23,Cc1csc2nc(COc3ccc(NC(=O)COc4ccc(F)cc4)cc3)cc(=O)n12,3.38%
24,Cc1ccc(NC(=O)Cn2cc(S(=O)(=O)N3CCN(c4ccccc4F)CC3)c3ccccc3c2=O)cc1F,14.6%

row,Compound,inhibition
1,CCOc1ccc(/C=C/c2nc(C#N)c(N(C)C)o2)cc1,-7.88%
2,COc1ccc(N2CCN(C(CNC(=O)c3ccc(C)cc3)c3ccc4c(c3)OCO4)CC2)cc1 (stereo unspecified),-11.8%
3,CCOc1ccccc1CNC(=O)c1nn(C)c2c1CS(=O)(=O)c1ccccc1-2,25.3%
4,CC(C)c1ccc(CNc2nc(-c3ccco3)nn2S(=O)(=O)c2ccccc2)cc1,4.39%
5,CN1CCN(C(=O)c2cnn(-c3cccc(F)c3)c2C2CCN(C(=O)OC(C)(C)C)CC2)CC1,16.8%
6,Cc1cc(C)c(NC(=O)c2cc(CN3CCOCC3)on2)c(C)c1,8.55%
7,CCc1ccc(NC(=O)C(Cc2ccccc2)NS(=O)(=O)c2ccc3c(c2)CCN3C(C)=O)cc1 (stereo unspecified),-1.76%
8,COc1ccc2cc(S(=O)(=O)c3ccccc3F)c(=O)oc2c1,-4.81%
9,C#CCOc1ccc(C2C(C(=O)OC)=C(C)NC3=C2C(=O)c2ccccc23)cc1OCC (stereo unspecified),6.17%
10,CCOc1ccc(Sc2cc(C(=O)NCCCOC)c3ccccc3n2)cc1,9.29%
11,CCOC(=O)c1cc(-c2ccc(C)cc2)n(CCC(=O)NCc2ccccc2)c1C,-4.12%
12,Cc1ccc(-c2nc3scc(CCNS(=O)(=O)c4ccc(C)c(C)c4)n3n2)cc1,2.01%
13,Cc1ccc(-c2noc(-c3cccnc3NCc3ccc(Cl)cc3)n2)cc1,13.1%
14,Cc1cccc(OCC(=O)Nc2ccc(C(=O)OCc3cc(=O)n4nc(C5CC5)sc4n3)cc2)c1,-16.1%
15,O=C(NCCc1nc2ccccc2n1CCOc1ccc(Cl)cc1)C1CCCCC1,12.4%
16,CCN(CC)c1ccc2cc(-c3nc4ccccc4n3C)c(=O)oc2c1,active: 39.6%
17,CCN(CC)CCNC(=O)C1CCCN(c2nnc(C)c3c(C)n(-c4ccc(Cl)cc4)nc23)C1 (stereo unspecified),5.11%
18,CCOc1ccc(NC(=O)CSc2nnc(CC)c(CC)n2)cc1,2.83%
19,CCOc1ccc(-c2cn3c(n2)sc2cc(C(=O)NCCC4=CCCCC4)ccc23)cc1,-17.3%
20,Cc1cccc(C)c1NC(=O)C1CCCN(S(=O)(=O)c2c(C)noc2/C=C/N(C)C)C1 (stereo unspecified),4.07%
21,COc1ccccc1CNC(=O)c1ccc(NC(=O)N2CC(C)Sc3ccccc32)cc1 (stereo unspecified),5.52%
22,O=C(COC(=O)c1cccs1)Nc1cccc(S(=O)(=O)N2CCOCC2)c1,active: 36.4%
23,COc1ccc(-n2ncc(C(=O)Nc3ccc(C)cc3Cl)c2C2CCN(C(=O)OC(C)(C)C)CC2)cc1,6.04%
24,CCOC(=O)c1ccc(NC(=O)CN2CCN(c3ccccc3)CC2)cc1,active: 61.7%

# From PubChem BioAssay AID485344 (National Center for Advancing Translational Sciences (NCATS), 2010)
